Substitutions are numbered along the chain they refer to. Names may count otherwise. No constants are given. Whether binding was seen depends on the method and setting. Binding seen in cells or lysates may run through a third protein. Some results given as binding are weak or reduced against the parent protein; the word gives no strength. Where a sequence is shown, tags or fusion partners need not be part of it.
T1: GST-EVH1 (Falafel Flfl^1-168aa, containing the EVH1 domain) (Drosophila melanogaster) (UniProt Q9VFS5)
T1 sequence: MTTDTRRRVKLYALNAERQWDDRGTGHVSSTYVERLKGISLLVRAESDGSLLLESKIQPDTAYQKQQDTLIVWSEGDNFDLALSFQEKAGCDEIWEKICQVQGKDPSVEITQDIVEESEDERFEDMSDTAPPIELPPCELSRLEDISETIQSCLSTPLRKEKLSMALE

T2: GST-Smk-1 (Falafel Flfl^169-361aa, containing the Smk-1 domain) (Drosophila melanogaster) (UniProt Q9VFS5)
T2 sequence: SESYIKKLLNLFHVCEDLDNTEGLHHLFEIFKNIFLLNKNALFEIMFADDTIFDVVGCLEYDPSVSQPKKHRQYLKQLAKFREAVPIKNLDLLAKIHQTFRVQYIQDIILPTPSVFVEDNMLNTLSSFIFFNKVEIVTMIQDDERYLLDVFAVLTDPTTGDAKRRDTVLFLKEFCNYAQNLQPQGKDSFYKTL

T3: GFP-Smk-1 (Drosophila melanogaster) (UniProt Q9VFS5)
T3 sequence: T2 sequence

B1: Zw10 (protein, UniProt Q9W4X9 1-721)
chain: MEEEAPRFNVLEEAFNGNGNGCANVEATQSAILKVLTRVNRFQMRVRKHIEDNYTEFLPNNTSPDIFLEESGSLNREIHDMLENLGSEGLDALDEANVKMAGNGRQLREILLGLGVSEHVLRIDELFQCVEEAKATKDYLVLLDLVGRLRAFIYGDDSVDGDAQVATPEVRRIFKALECYETIKVKYHVQAYMLQQSLQERFDRLVQLQCKSFPTSRCVTLQVSRDQTQLQDIVQALFQEPYNPARLCEFLLDNCIEPVIMRPVMADYSEEADGGTYVRLSLSYATKEPSSAHVRPNYKQVLENLRLLLHTLAGINCSVSRDQHVFGIIGDHVKDKMLKLLVDECLIPAVPESTEEYQTSTLCEDVAQLEQLLVDSFIINPEQDRALGQFVEKYETYYRNRMYRRVLETAREIIQRDLQDMVLVAPNNHSAEVANDPFLFPRCMISKSAQDFVKLMDRILRQPTDKLGDQEADPIAGVISIMLHTYINEVPKVHRKLLESIPQQAVLFHNNCMFFTHWVAQHANKGIESLAALAKTLQATGQQHFRVQVDYQSSILMGIMQEFEFESTHTLGSGPLKLVRQCLRQLELLKNVWANVLPETVYNATFCELINTFVAELIRRVFTLRDISAQMACELSDLIDVVLQRAPTLFREPNEVVQVLSWLKLQQLKAMLNASLMEITELWGDGVGPLTASYKSDEIKHLIRALFQDTDWRAKAITQIV
modifications: 35S-methionine label
B2: Psc fragment aa 786-876 (domain or fragment, UniProt P35820 786-876)
chain: TVDFKIRLPVTNGNSSGTASPKIEKPLMPPPAKPPMLAPRKLQPSAQFAPPPSPIHHHAGVQMSAPGNRTPIAKRYQPILPKASRPNPFAN
modifications: 35S-methionine label
B3: Grip75 (protein, UniProt Q9VKU7 1-650)
chain: MIHDLLLACRSHNPEQLGIKAFNETTVIDQFIHPCEREIFMDIIKIIKVYQEVEQFTHSSGRKSDTHGELPDSLHGYYLLNLAKGIEMALEEYYAEIGRLEKYCLGNERNSLSYVYNALYAKFPLLVFMRNLITEIHVLNLRGCVLLHNLHQQCEHGDIQLEKAIKIIMKPVKNAFFSSLAHWLLFGVIDDVHSEFFIKFTPTDAVDGSSFSKSATCSLLSAEKNPEDYIWQYEVNMSQLPGFFSIVLAEKVLFVGQTVLVFKMGRNVKVKNKTDPLAAKLAELDSDDIYQLWSGRESEFFKMVVDLSNEDTINVFRLEKVIIDIKNYVSARLSEIAVNEVDLERQMGLIKDFFLLGRGEFYLEFCSQMVGTMETYREERFKNVTRSFELAATVTGITDDLDKFSLICQRSTSEPDDTSDFNFLQGLSLKYEYEWPLNLLFSPTTIERYNNIFRFLLIIRTYQYEIQRVWAKQTWRAKSAKDVPPNNKIITLRNYLMFFLNNMQYYIQVDVLESQFGILMNVIKSRSDFEVIQRAHTVFLANVLSHCFLLNESETQLNVTGSQNRNPIYGTLLKLFGICEKFAHMTQTKDPSDDLEDEVDQLNESFGVQIASLIQLLVDVKSASCLGPLSQLLLRLDFNCWFSASHNTSA
modifications: 35S-methionine label
B4: γ-Tub23C (protein, UniProt P23257 1-475)
chain: MPSEIITLQLGQCGNQIGFEFWKRLCLEHGISPSGVLEDFANDGLDRKDVFFYQADDDHYIPRAVLLDLEPRVINTIMGSVYSKLYNPENVYLSKHGGGAGNNWASGYSQGEKLQEEVFDIIDREADGSDSLEGFILCHSIAGGTGSGMGSFIMERLADRYPKKLIQTFSVFPNQDEISDVVVQPYNSMLTLKRLTTAADSVVVLDNTALNRIACDRLHIQNPSFSQINNLVSTIMSVSTTTLRYPSYMNNNLIGLTAPLIPTPQLHFLMTGYTPLTSDSDIHTQQLVNVRKTTVLDVMRRLLQPKNMMVSTGPDKSNHHCYISILNIIQGEVDPTQVHKSLQRIRDRKMAQFIPWGPTSIQVALSRSSPYVQSNHRVSGLMLANHTSICSLFERALNQYDKLRKRGAFLDQFRREDIFKDDLNELDESRETVDCLVQEYEAATREDYMQFSVKRGNGPVDSKSEDSRSVTSAGS
modifications: 35S-methionine label
B5: Psc fragment aa 721-810 (domain or fragment, UniProt P35820 721-810)
chain: RAITPPSPSVQQSASPKSKGNNLDDSILMKPPSCMPPKSIASSKRKSKEPVKAVSKKQKLSPPLPTVDFKIRLPVTNGNSSGTASPKIEK
modifications: 35S-methionine label
B6: Nipsnap (protein, UniProt Q9VXK0 1-273)
chain: MLKLRNLLAVGKSNNNAVRSLSTTPSRNDSESWFSKLLVRKIEPTKESHSRMLSDKEIIYALHTHNVRPDSMGSYLNNYKTTVALINEKKANLSCELVASWTVQVGDMDQCLHLWKYTGGFEKIDQAKEDLWNDPEYLSLMQERSKFLRSRHLQYLLAFSYWPQIASRTGKNIYEMRSYRLTPGTMIEWGNNWARAINYRKHNNEAFAGFFSQIGRLYNVHHIWCYKSLQDRKETREAAWRSPGWDECVAYTVPLIREMHCRVLAPTEFSPSQ
modifications: 35S-methionine label
B7: Zwilch (protein, UniProt Q9VA00 1-641)
chain: MSASANLANVYAELMRRCGESYTITYGAPPTYLVSMVGAAEAGKKIVLVFKEDRNGAVARLRTTPTRAAPKKEGSADLDLTGSPLKDDCLVDAIADLSIDLQLDHSNPWKLEEEYQRGIPVDKARSIVCSEFLQLAEGLGSVWFLCDGSDLGQTQLLQYEFNPTHFSRGILSYQGVRPAYLVTSQALVRHHGKTPDETLIENSYQVNPHMRLRCSWTSSAALPLLVNLNDCDVALNHTFRVGDCGPLTQDFMNQLRILVYIREDIVSYHTDVKQGVSRDPTYRCGSGIDMDELRESINQTMTDVSGLIGRYSISNAEFDIEDVVQRAKVRQLTDLTDKLWELLKCCHSYKDLKIAFSMLFQCAARCNIVNTPTNKNRLAKIITELANRRLAMPCLSGAEPLELLLEIGLEKLYKDYEFIYTESKMCSTNLLKDDSSGASMDDGSPQNLPQLRKSLHNAVRGDPTPGAGMRKTLLHHHGAVNSRSTKYAGSDDDAGFKNSHFDEHESTERISKLFQIHCTLEHLLMMHIHLNLANVYNDVCSELLKKPPKLVESIDDQLSDVMDIRLSAHYVRDHLDGKDPYSRHITMRSHNKFRELKTTFYFNSENICPPNLAQCFQCDDKEMVKERTYHSWIYHKIRSLK
modifications: 35S-methionine label
B8: Spindle A (protein, UniProt Q27297 1-336)
chain: MEKLTNVQAQQEEEEEEGPLSVTKLIGGSITAKDIKLLQQASLHTVESVANATKKQLMAIPGLGGGKVEQIITEANKLVPLGFLSARTFYQMRADVVQLSTGSKELDKLLGGGIETGSITEIFGEFRCGKTQLCHTLAVTCQLPISQKGGEGKCMYIDTENTFRPERLAAIAQRYKLNESEVLDNVAFTRAHNSDQQTKLIQMAAGMLFESRYALLIVDSAMALYRSDYIGRGELAARQNHLGLFLRMLQRLADEFGVAVVITNQVTASLDGAPGMFDAKKPIGGHIMAHSSTTRLYLRKGKGETRICKIYDSPCLPESEAMFAILPDGIGDARES
modifications: 35S-methionine label
B9: barrier-to-autointegration factor (BAF) (protein, UniProt Q9VLU0 1-90)
chain: MSGTSQKHRNFVAEPMGNKSVTELAGIGETLGGRLKDAGFDMAYTVLGQYLVLKKDEELFKDWMKEVCHASSKQASDCYNCLNDWCEEFL
modifications: 35S-methionine label
B10: Flag-Zw10(^238AxxA^241) (protein, UniProt Q9W4X9 1-721)
chain: B1 chain with F238A, P241A
B11: Flag-Zw10 (protein, UniProt Q9W4X9 1-721)
chain: B1 chain
B12: Flag-Zw10(^438AxxA^441) (protein, UniProt Q9W4X9 1-721)
chain: B1 chain with F438A, P441A

Target: T1, GST-EVH1 (Falafel Flfl^1-168aa, containing the EVH1 domain) (Drosophila melanogaster)
Assay: pull-down; GST or GST-fused bait immobilised on glutathione sepharose 4B; 35S-methionine-labelled IVTT prey; 90 min at 4°C in WB1 (50 mM HEPES pH 7.5, 150 mM NaCl, 2 mM MgCl2, 1 mM EGTA, 1 mM DTT, 0.1% Triton X-100) with protease inhibitors and 0.5 mg/ml BSA; SDS-PAGE and autoradiography; only the target purified

Row | binding | Binder
1 | no binding | B1
2 | binds | B2
3 | no binding | B3
4 | no binding | B4
5 | binds | B5
6 | no binding | B6
7 | no binding | B7
8 | no binding | B8
9 | no binding | B9

Target: T2, GST-Smk-1 (Falafel Flfl^169-361aa, containing the Smk-1 domain) (Drosophila melanogaster)
Assay: as above

Row | binding | Binder
10 | binds weakly | B1
11 | binds | B3
12 | binds | B4
13 | binds | B6
14 | binds weakly | B7
15 | binds | B8
16 | no binding | B9

Target: T3, GFP-Smk-1 (Drosophila melanogaster)
Assay: co-IP; GFP-Smk-1 and Flag-tagged protein transiently co-expressed in D.Mel-2 cells; lysate in EB buffer; GFP-Trap magnetic agarose, 90 min at 4°C; immunoblot with anti-GFP and anti-FlagM2

Row | binding | Binder
17 | binds | B10
18 | binds | B11
19 | binds | B12

Reference: article PMC7776573
